The record followed here is ChEMBL document CHEMBL4888484, “Replenishing the malaria drug discovery pipeline: Screening and hit evaluation of the MMV Hit Generation Library 1 (HGL1) against asexual blood stage Plasmodium falciparum ,using a nano luciferase reporter read-out” (2022).

The campaign covered roughly 150,000 compounds. About 540 (0.36%) showed an effect of 50% or more. This is one part of the list.

In the assay the test system is Plasmodium falciparum. As to the kind of experiment: Primary screen in NF54 nanoGlo assay, in single point, at 2uM, 72h; a lower Z score goes with more inhibition. It is filed as functional, Erythrocyte. The conditions noted are these: timepoint 72 hour.
For the molecule `CN1C(=O)[C@]2(CCN(C(=O)C3CCCC3)C2)c2ccccc21`, the “% Inhibition” value is recorded as -9% and the Z score is 1.14.

Consider `C[C@@H](CNc1ncc(Cl)cn1)c1nncn1C`, for which the “% Inhibition” value is reported as 8% and the Z score is on record as -1.16.

Consider `COCC(=O)NC1CN(S(=O)(=O)c2cc(F)cc(F)c2)C1`, for which the “% Inhibition” value is recorded as -2% and the Z score was found to be 0.4.

With `c1ccc2c(c1)OC[C@@H](c1noc(Cc3cc(C4CC4)no3)n1)O2`, the “% Inhibition” value was -6% and the Z score was 1.24.

As to `O=C(NCc1ccco1)N1CCN(c2nc3cc(F)ccc3n3cccc23)CC1`, the “% Inhibition” value stood at 8% and the Z score is on record as -1.29.

With `CCC1CN(S(=O)(=O)CCC(C)(C)S(C)(=O)=O)C1`, the “% Inhibition” value is recorded as -9% and the Z score worked out at 0.9.

As for `CNC(=O)COc1cccc(CC(=O)NCc2ccnc(-n3ccnc3)c2)c1`, the “% Inhibition” value is 17% and the Z score was -2.2.

With `O=C(Nc1ccncc1)N1CC=CC12CCCCC2`, the “% Inhibition” value stood at 0% and the Z score came out at 0.01.

With `O=C(C[C@H]1CCCOC1)NCCCn1ccnn1`, the “% Inhibition” value is recorded as 4% and the Z score is -0.5.

As to `Cc1cccc2c(=O)n(CCC(=O)Nc3ccc(NC(=O)c4ccco4)cc3)cnc12`, the “% Inhibition” value is given as -11% and the Z score came out at 2.1.

With `CCN(CCN1CCOCC1)C(=O)c1cnn[nH]1`, the “% Inhibition” value is given as 4% and the Z score was -0.7.

For `COc1ccc(CNC(=O)CCc2ccc3nc(NC(C)=O)sc3c2)c(OC)c1`, the “% Inhibition” value is listed as -15% and the Z score was determined as 1.51.

On to `CNC(=O)c1sc2ccc(NC(=O)c3cnccn3)cc2c1OC`, for which the “% Inhibition” value is -9% and the Z score came out at 1.09.

With `CCC(=O)Nc1ccc(C)cc1-c1nc2ccccc2n(CC(=O)Nc2ccccc2C)c1=O`, the “% Inhibition” value was -4% and the Z score was determined as 0.65.

Regarding `CS(=O)(=O)c1ccc(OC[C@H]2C[C@@H](NC(=O)Nc3ccccc3)[C@H](O)[C@@H]2O)cc1`, the “% Inhibition” value is on record as -14% and the Z score came out at 1.78.

On to `O=C1[C@@H]2C[C@@H](CN2Cc2ccc3c(c2)OCCO3)N1c1ccccc1Cl`, for which the “% Inhibition” value was determined as 7% and the Z score is recorded as -0.99.

For `Cc1cc(C(=O)NCCNC(=O)c2cc(C)oc2-c2ccccc2)c(-c2ccccc2)o1`, the “% Inhibition” value is -8% and the Z score stood at 0.98.

For `Cc1ccc2nccc(N(C)Cc3nc(-c4ccccn4)no3)c2c1`, the “% Inhibition” value was -15% and the Z score was 2.77.

In the case of `Cc1c(C(=O)NCc2cccs2)cnn1[C@H]1CCS(=O)(=O)C1`, the “% Inhibition” value is -4% and the Z score worked out at 0.63.

In the case of `O=C(CN1CCCCCC1)N1CCC2(CC1)CC(=O)N(Cc1ccccc1)C2`, the “% Inhibition” value is recorded as -2% and the Z score came out at 0.25.

Take `COc1ccc(OC)c(CNC(=O)CCc2nc(N3CCCCC3)c3c(C)noc3n2)c1`: the “% Inhibition” value was -8% and the Z score worked out at 1.31.

Take `CC(C)(COc1ncc(Cl)cc1Cl)NC(=O)CC#N`: the “% Inhibition” value is on record as -8% and the Z score was 1.23.

As to `O=C(Nc1cn[nH]c1)C(=O)Nc1ccc(F)c(F)c1F`, the “% Inhibition” value is given as 34% and the Z score was -4.62.

In the case of `CN1CCc2ccc(S(=O)(=O)NCCN3CCc4ccccc4C3)cc21`, the “% Inhibition” value is listed as -9% and the Z score is reported as 1.28.

Take `COc1ccc2c(c1)C(NC(=O)[C@H]1CCCO1)CCN2C(=O)[C@H]1CCCO1` (some centres not stated): the “% Inhibition” value was -6% and the Z score is listed as 0.82.

For `COc1c[nH]c(COCC2CCCCCC2)cc1=O`, the “% Inhibition” value stood at 13% and the Z score is on record as -1.66.

As for `CN(Cc1ccccc1)C(=O)c1nn(-c2ccc(Cl)cc2)c(=O)n(Cc2cccc(F)c2)c1=O`, the “% Inhibition” value is given as -8% and the Z score stood at 1.02.

As for `Cc1[nH]c2c(-c3cccc4ccccc34)cnn2c(=O)c1Cl`, the “% Inhibition” value is on record as -17% and the Z score amounted to 2.17.

As for `Cn1cc(-c2csc(Nc3ccc(C#N)cc3)n2)cn1`, the “% Inhibition” value came out at 3% and the Z score is -0.44.

In the case of `CCS(=O)(=O)C[C@H](C)N(C)C(=O)CCc1ccccc1`, the “% Inhibition” value was -4% and the Z score came out at 0.8.

Regarding `O=C(CCNc1ccc(-c2ccccc2)cc1)c1ccc(Br)cc1`, the “% Inhibition” value is -12% and the Z score is given as 1.48.

Regarding `CCOC(=O)CN(C)c1ncc(CN[C@@H](C)c2ncn[nH]2)cn1`, the “% Inhibition” value is reported as -4% and the Z score came to 0.75.

`Cn1ncc2cnn(CC(=O)Nc3cccc(S(=O)(=O)N4CCOCC4)c3)c2c1=O`: the “% Inhibition” value was -7% and the Z score amounted to 1.14.

Consider `CC(C)C(=O)N[C@H](C#N)c1cccc(Br)c1`, for which the “% Inhibition” value was 10% and the Z score is reported as -1.64.

Take `Cc1nnc(-c2ccc(S(=O)(=O)N3CCCc4ccccc43)s2)o1`: the “% Inhibition” value is listed as -8% and the Z score stood at 1.55.

As to `COC[C@](C)(CCO)NCc1c(C)cccc1C`, the “% Inhibition” value is given as -4% and the Z score was determined as 0.6.

Regarding `Cn1cc(CN2C[C@@H]3[C@@](C(F)(F)F)(CCCS3(=O)=O)C2)cn1`, the “% Inhibition” value is listed as -15% and the Z score came to 1.51.

Regarding `c1ccc(-c2noc(-c3ccc(N4CCN(C5CCCCC5)CC4)nn3)n2)cc1`, the “% Inhibition” value was 7% and the Z score is -0.87.

Take `Cn1cc(C(=O)N2CCC[C@H]2c2ccsc2)cn1`: the “% Inhibition” value is recorded as -6% and the Z score was found to be 0.57.

As to `CC1(C)O[C@@H]2C[C@@](OCc3ccccc3C#N)(C(=O)NC3CC3)CC(OCc3ccc(F)c(F)c3)[C@@H]2O1` (some centres not stated), the “% Inhibition” value is on record as -5% and the Z score turned out to be 0.54.

Regarding `O=C(C[C@@H]1NC(=O)N(Cc2ccccc2Cl)C1=O)Nc1ccccn1`, the “% Inhibition” value is recorded as 2% and the Z score is given as -0.29.
